Measured values reported in the supplement of paper PMC3334620.
Whole data set: some 33,000 sequences, median “E-score (-0.5 to 0.5)” near -0.016, cut for the highest 2% near 0.32. The list shows a part of the results.

target: T1, Stp1 (UniProt B3LFK1); test: PBM E-score (8-mer binding enrichment) (E-score (-0.5 to 0.5)); higher = stronger / more preferred TF binding; most listed sequences are background and not binding sites; conditions: protein concentration: 200 nM; construct: GST-full length
T1 sequence: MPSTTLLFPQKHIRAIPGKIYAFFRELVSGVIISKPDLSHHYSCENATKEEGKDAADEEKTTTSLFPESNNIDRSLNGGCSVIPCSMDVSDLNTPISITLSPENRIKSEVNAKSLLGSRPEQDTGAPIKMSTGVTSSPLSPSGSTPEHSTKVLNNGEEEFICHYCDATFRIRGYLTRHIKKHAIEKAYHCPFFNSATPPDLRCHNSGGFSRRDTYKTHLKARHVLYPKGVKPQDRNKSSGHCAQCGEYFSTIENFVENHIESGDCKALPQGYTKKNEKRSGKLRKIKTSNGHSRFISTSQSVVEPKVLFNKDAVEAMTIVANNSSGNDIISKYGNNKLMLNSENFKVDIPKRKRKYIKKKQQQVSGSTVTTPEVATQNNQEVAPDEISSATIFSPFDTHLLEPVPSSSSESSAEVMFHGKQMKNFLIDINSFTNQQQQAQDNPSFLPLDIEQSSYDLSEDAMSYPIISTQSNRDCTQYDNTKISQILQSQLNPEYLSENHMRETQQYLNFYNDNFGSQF
Procedure, shortened: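 E-scores (a modified Wilcoxon-Mann-Whitney statistic) were assigned by the Universal PBM Analysis Suite to every ungapped eight-base word pooled with its reverse complement. The input came from universal all-10-mer Agilent arrays made double-stranded by primer extension and probed with GST-tagged yeast transcription factors at about 100-200 nM. Fluorescent anti-GST detected bound protein, and masliner normalised the scans.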

Sequence | PBM E-score
AACAAAGC | 0.107
ATCCTCAG | -0.0791
CGCCTCGA | 0.205
CATAACCG | -0.0149
CCCCGGCC | -0.404
ATCTTGTG | -0.11
AAGGAAGT | 0.0374
TACAGACA | 0.171
TGACGACA | -0.0157
CCCGCGCA | -0.0346
CCTTCCGA | 0.0578
GGTTTTAC | -0.126
CCACCGCA | -0.118
TACATTCA | -0.0994
GCAGCATA | 0.0149
CCCCTACA | -0.255
ACGCAAAA | 0.0612
AGTTTCAT | 0.111
CACCAGAC | 0.0249
GAAAAGCA | -0.114
CTTCGAAG | 0.0561
GATCGTGC | 0.127
ATGCTTAC | -0.164
AACGGTAG | -0.212
GCACTGGC | -0.147

Sequence | PBM E-score
GAGCACAA | -0.00748
ACTCGTCC | -0.0203
CAAATTTA | 0.236
CATGCGAC | -0.00366
GCAAGCAA | 0.00336
AATTGGAG | -0.143
CCGCCGCC | 0.194
TATCCCGA | -0.168
CAGGTCTC | -0.197
ATTGTCCA | 0.111
AGGTTTAG | -0.24
AACAATTC | 0.0872
CGCGCGGC | 0.483
CAAAAAGC | 0.187
ATCTTAAC | 0.186
ATTGCTGC | 0.199
CAACCCTC | -0.287
CCCGGCTA | -0.148
GGTTAACA | 0.0916
AGTATAAC | -0.113
CGGAGTCA | -0.0711
CAGGGCCG | 0.187
GAATCCCA | -0.0304
TCGTTCAA | -0.104
CTATTAAA | 0.261

Sequence | PBM E-score
AATTAGTG | 0.193
CCTGGCAC | -0.0915
AGTAGAAC | -0.118
ACAGATTA | -0.146
AGGATGCC | 0.0869
AGAAGCTG | -0.0485
ACCTTAGA | -0.0927
AGCATTCG | -0.154
CTAGAAGC | -0.0655
CCAGTAGA | -0.176
GGATCTTA | -0.0225
ATCATAAC | 0.161
AGAGTCGC | -0.166
GAGCGTCC | -0.314
AATGGACG | 0.278
TCGGAACA | 0.0567
GGGGCTGA | -0.254
ACTCCTAG | -0.123
ATGACACC | -0.27
GCACTACA | 0.0263
ATCGATTA | 0.0837
CCAATGCC | 0.152
ACGTATCT | -0.111
CGTAGCCC | -0.107
ATTTAACG | 0.208

Sequence | PBM E-score
GAAACCGC | 0.184
AATGTTGG | 0.196
AAGGGCCT | -0.258
ATTCTTCA | -0.0361
AGGGGGGA | -0.454
AATGGTGC | 0.066
CACTGGGA | -0.16
TAGTTCCA | 0.111
AATATCTG | -0.0587
AACGGCGA | 0.452
GGGCATCA | 0.104
CTGATGTC | 0.0864
ACTGAACC | -0.173
ACTAACGC | 0.0748
AACAAGAC | -0.0256
AGCTCCGC | -0.0821
GACTGATA | -0.134
CGGTACAC | -0.205
ATTAGGGA | -0.145
AAACGCTG | -0.101
CTATGCTC | -0.317
CGCAGGAG | -0.0328
AATAGGGG | -0.182
GCCCACAC | 0.126
AAGGTGTC | -0.0527

Sequence | PBM E-score
ACGGTAGT | -0.121
TGCGGCAA | 0.412
GTAACCAC | -0.136
AGAAAGAT | 0.144
CATACTTC | -0.12
CTTCCTTC | -0.17
GCAGTAAA | -0.0295
AGCTTAAC | -0.207
AGTTTTCC | 0.0808
ATGCAGAA | 0.0791
CCAGCGGG | -0.14
AAAACACG | 0.157
ATATGTAG | -0.0608
GCTGGCTA | -0.329
ATGTGCAG | -0.239
CCTAGGGC | -0.151
CATGAATG | 0.0464
ATTATTAC | 0.0641
CGAATACA | 0.0367
ATATCATG | -0.104
CCTTCTAA | -0.121
AAAACGGC | 0.403
CGGAACAA | 0.0927
CTGGACGA | -0.224
CGTGGGCC | 0.0554

Sequence | PBM E-score
AGCAAAAT | 0.124
GAACTTAC | 0.102
GGTGGCGA | -0.115
CACATACC | -0.0489
CGGACAAA | 0.0563
GTCACGAA | 0.0128
AGCTTCTC | -0.318
AATGTTAC | 0.155
CGGTCTTA | -0.149
AGTCGGTC | -0.278
CGCTTTTC | 0.0461
GACAAGAC | -0.118
TCCAAACA | 0.0389
AACGTTGT | -0.128
CGAAGACG | -0.018
CAGTGAGA | -0.108
ATACCTGG | -0.284
CGATGTGA | -0.148
CGTCTTAA | 0.0546
GTTTATGA | 0.0508
ATCTTGAA | -0.0199
ACAGGGTC | -0.232
AGGGTACA | -0.0897
AATCAGCC | -0.112
TTCTTCAA | 0.121

Sequence | PBM E-score
CTGTTGTC | 0.0748
TAAGATAA | 0.0593
CTTTTACC | 0.0224
CTCTGGCA | -0.203
CCCTACGA | 0.00651
CGACCTCA | -0.0976
ACGAGGAG | -0.115
AAGTGGGC | 0.0237
AAAAGTTT | 0.0837
ATCAGCAT | 0.0572
ATGAACCA | 0.107
ACCATACC | -0.159
AATATACC | -0.00864
CCCAGAGA | -0.224
CATGTGTC | -0.0637
CAACATTA | 0.0679
ACGTCGAC | -0.0461
ACCACTCT | -0.173
ATACCAAG | 0.133
CTGCCCAC | -0.168
GCATAAGC | -0.00045
ACTCCTAC | -0.138
